# Laboratory results reported in PMC4336329 (PLoS ONE, 2015).
# The whole screen tested about 310,000 compounds, of which about 2,200 (0.71%) showed an effect of 50% or more. The effect is printed as a negative number. Some of the results follow.
# Molecular target: human ether-à-go-go-related gene (hERG) potassium channel (human, UniProt Q12809)
# Assay: primary screen, population patch clamp on CHO cells stably expressing hERG
# Sequence of human ether-à-go-go-related gene (hERG) potassium channel (Q12809 whole entry, looked up): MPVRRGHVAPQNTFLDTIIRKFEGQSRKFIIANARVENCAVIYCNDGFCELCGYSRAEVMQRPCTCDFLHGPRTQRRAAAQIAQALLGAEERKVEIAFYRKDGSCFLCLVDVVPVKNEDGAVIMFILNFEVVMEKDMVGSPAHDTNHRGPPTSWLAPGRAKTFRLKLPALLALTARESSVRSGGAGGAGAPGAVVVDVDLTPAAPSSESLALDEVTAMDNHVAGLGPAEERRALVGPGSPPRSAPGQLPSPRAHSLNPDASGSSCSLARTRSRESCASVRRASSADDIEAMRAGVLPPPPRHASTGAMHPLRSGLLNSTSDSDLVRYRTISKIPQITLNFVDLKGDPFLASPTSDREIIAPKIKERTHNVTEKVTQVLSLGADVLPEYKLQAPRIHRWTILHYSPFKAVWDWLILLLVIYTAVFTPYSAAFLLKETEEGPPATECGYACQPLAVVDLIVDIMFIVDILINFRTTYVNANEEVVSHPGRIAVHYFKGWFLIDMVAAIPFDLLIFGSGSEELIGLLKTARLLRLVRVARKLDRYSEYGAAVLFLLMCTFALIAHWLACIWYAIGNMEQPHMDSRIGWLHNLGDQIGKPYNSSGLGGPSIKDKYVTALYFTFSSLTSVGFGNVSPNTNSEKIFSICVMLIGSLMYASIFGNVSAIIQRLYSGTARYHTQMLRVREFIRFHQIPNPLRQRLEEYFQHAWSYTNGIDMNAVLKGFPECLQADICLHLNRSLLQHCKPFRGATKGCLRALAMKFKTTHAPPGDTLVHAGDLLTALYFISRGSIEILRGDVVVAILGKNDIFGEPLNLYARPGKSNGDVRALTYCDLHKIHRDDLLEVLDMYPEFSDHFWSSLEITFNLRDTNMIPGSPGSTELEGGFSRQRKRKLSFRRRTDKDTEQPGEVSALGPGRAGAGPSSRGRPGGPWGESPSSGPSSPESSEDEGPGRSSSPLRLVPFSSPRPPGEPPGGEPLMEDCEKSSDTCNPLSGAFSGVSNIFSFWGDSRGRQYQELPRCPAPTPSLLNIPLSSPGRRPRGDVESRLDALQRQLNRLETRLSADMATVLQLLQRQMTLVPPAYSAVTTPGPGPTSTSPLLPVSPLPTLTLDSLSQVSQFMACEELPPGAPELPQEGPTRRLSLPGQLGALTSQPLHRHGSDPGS
row,SMILES,"hERG current change (%, negative = inhibition) at 1uM"
1,O=C(N/N=C/c1ccc(Cl)c([N+](=O)[O-])c1)c1cnccn1,-13.5%
2,Cc1ccccc1-c1nc(CN2CCC(C(=O)NCCCN3CCCC(C)C3)CC2)c(C)o1 (stereo not shown),18.1%
3,NC(=O)c1ccsc1NC(=O)COC(=O)Cc1ccsc1,12.2%
4,CCN(CC)S(=O)(=O)c1ccc(N2CCOCC2)c(NC(=O)c2ccccc2)c1,4.5%
5,COC(=O)C1=C(c2ccc(S(C)(=O)=O)cc2)C[C@@H]2CC[C@H]1N2C(=O)N1CCC(C)CC1,10.3%
6,COc1cc(/C=N/NC(=S)Nc2cccc(S(=O)(=O)N(C)C)c2)ccc1O,7.2%
7,O=C(CSc1nnc(CNC(=O)c2ccco2)o1)Nc1cccc(Cl)c1,-4.07%
8,Cc1cccc(NC(=S)NC2CC3CCCC(C2)N3Cc2ccccc2)c1C (stereo not shown),4.85%
9,O=c1[nH]c(=O)n(-c2ccccc2)c(O)c1N=Nc1ccc(Br)cc1,2.59%
10,Cc1ccc(CS(=O)(=O)Cc2ccc(C(=O)NCCCN3CCOCC3)o2)cc1,11.4%
11,O=C(CN1CCC(c2nc3ccccc3s2)CC1)NCc1cccs1,-13.9%
12,Oc1sc(C=Nc2ccccc2)c2ccccc12,10.4%
13,CN1CCC(=NNC(=O)COc2ccc(Cl)cc2)CC1,15%
14,C=CCn1c(SC)nnc1-c1ccc2ncccc2c1,5.94%
15,Cc1ccc(CNS(=O)(=O)c2ccc(C(F)(F)F)cc2)n1C,12.7%
16,Cc1nn(CCc2n[nH]c(=S)n2C)c(C)c1Br,1.19%
17,O=C(c1cccc(N2C(=O)C3C4C=CC(C4)C3C2=O)c1)N1CCCc2ccccc21 (stereo not shown),-4.2%
18,CCC1(CC)Cc2ccccc2C(N)=C1C#N,-0.675%
19,COc1ccc(Cl)cc1NC(=O)c1nnn(CC(=O)Nc2ccc3c(c2)OCO3)c1N,18.7%
20,Cc1ccc(NC(=O)C2CC(=O)N(c3ccc4c(c3)OCCO4)C2)cc1S(=O)(=O)N(C)C (stereo not shown),-1.44%
21,N#Cc1nc(-c2cccc3ccccc23)oc1NCC1CCCO1 (stereo not shown),11.4%
22,COc1ccc(NC(=O)CN(C)C2CCCCC2)cc1Cl,-17.1%

row,SMILES,"hERG current change (%, negative = inhibition) at 1uM"
1,Cc1cccc2cc(CN(CC3CCCO3)S(=O)(=O)c3ccccc3)c(=O)[nH]c12 (stereo not shown),13.8%
2,O=C(CCCSc1nc2ccccc2[nH]1)NCc1ccco1,2.21%
3,Cc1nn(-c2ccccc2)c(=O)c2noc(C)c12,0.649%
4,CCN(c1ccccc1)S(=O)(=O)c1ccc2c(c1)CC(C)N2C(=O)C1CC1 (stereo not shown),17%
5,COc1ccc(OC)c(NC(=O)CSc2nc(-c3ccccc3)cc(=O)[nH]2)c1,19.4%
6,CCCC(NC(=O)CCc1c(C)c2cc3c(-c4ccccc4)coc3cc2oc1=O)C(=O)O (stereo not shown),11.2%
7,O=S(=O)(/N=C(/Nc1ccc(Cl)c(S(=O)(=O)Nc2ccccc2Cl)c1)c1ccc(F)cc1)c1ccccc1,15.6%
8,O=C(CCS(=O)(=O)c1ccc(Cl)cc1)NCCc1c[nH]c2ccccc12,4.07%
9,CCCC(=O)NC(=S)Nc1cccc(-c2nc3ncccc3o2)c1,15.5%
10,S=C(NCC1CCCO1)N1CCN(c2nc(-c3ccc(Cl)cc3)cs2)CC1 (stereo not shown),15.5%
11,CC1=NC(C#N)=C(C#N)NC(C)(C)C1,1.13%
12,CC(C)CN(C(=O)CSc1nnc(-c2cccs2)n1N)c1c(N)n(Cc2ccccc2)c(=O)[nH]c1=O,-8.21%
13,Cc1cc2oc(=O)cc(CN(C)Cc3ccccc3)c2cc1C(C)C,13.9%
14,O=S(=O)(c1ccc(F)cc1)N1CCN(c2nc(-c3cccnc3)nc3ccccc23)CC1,-32%
15,Cc1ccnc(NC(=O)C23CC4CC(CC(C4)C2)C3)c1,7.39%
16,Cc1ccc(N2C(=O)C3CCCN3C2=S)cc1C (stereo not shown),16%
17,Cc1nc2ccccc2c2oc(C(=O)N3CCc4ccccc4C3)cc12,6.58%
18,CCSc1ncc(C#N)c(N)n1,7.85%
19,O=C(O)c1ccccc1C(=O)Nc1ccc(Oc2ccc3ccccc3c2)cc1,10.8%
20,Cc1nn(CCC(=O)O)c(C)c1C,10.9%
21,Cc1ccc(CNC(=O)/C=C/c2ccc(S(=O)(=O)N3CCOCC3)cc2)cc1,4.97%
22,O=C1C=C(/C=C/C2C=CC=CC2)C[C@@H](c2ccc(Cl)cc2)C1 (stereo partly shown),13.5%

row,SMILES,"hERG current change (%, negative = inhibition) at 1uM"
1,CC(C)Nc1nnc(SCC(=O)/C=C2\N(C)c3ccccc3C2(C)C)s1,7.82%
2,COC(=O)c1cccc(NC(=O)CCc2c(C)noc2C)c1,10%
3,Cc1ccc(C2CC2C(=O)NNC(=S)Nc2ccc(Cl)cc2)cc1 (stereo not shown),-0.0935%
4,CCOc1ccccc1/C=C/C(=O)c1ccc(Cl)cc1,2.61%
5,C=CCN1CC(c2nc3ccccc3n2CCOc2ccccc2)CC1=O (stereo not shown),5.08%
6,OC1(C#CCN2CCCC2)c2ccccc2-c2ccccc21,4.56%
7,CCN(CC)S(=O)(=O)c1ccc(C(=O)NNC(=O)c2csc(N3CCOCC3)n2)cc1,1.65%
8,C[C@@H](C(=O)N1CCN(Cc2ccc3c(c2)OCO3)CC1)n1nnc2ccccc2c1=O,16.2%
9,COc1ccc(C(NC(=O)/C=C/c2ccco2)c2ccc(OC)cc2)cc1,1.34%
10,Cc1ccc(CC2CC(=O)N(CCc3ccccc3)C2=O)cc1 (stereo not shown),12.1%
11,COc1ccc(/C=N/NC(=O)c2ccccc2)cc1CN1CCN(c2ccc(F)cc2)CC1,-62.1%
12,O=C(COc1ccc(OCc2ccccc2)cc1)NC1CCOC1=O (stereo not shown),7.32%
13,COC(=O)c1cccc(-c2ccc(/C=N/N3C(=O)C4C5C=CC(C6CC56)C4C3=O)o2)c1 (stereo not shown),4.74%
14,CC(=O)CC(C)(C)S(=O)(=O)c1ccc(NC(C)=O)cc1,14.7%
15,Cc1ccc(N2CC(C(=O)Nc3ccc4c(c3)OCCO4)CC2=O)cc1C (stereo not shown),14.3%
16,O=C1OC(c2ccc(Cl)cc2)/C(=C(/O)c2ccccc2)C1=O (stereo not shown),2.03%
17,O=C(O)c1cccc(NS(=O)(=O)c2cc(S(=O)(=O)c3ccc(Cl)cc3)ccc2Cl)c1,1.37%
18,O=C(Cn1cnc2ccccc2c1=O)NNC(=O)c1ccccc1,16%
19,CCc1cc(C(c2ccncc2)N2CCN(C)CC2)c(NC(=O)c2ccccc2)s1 (stereo not shown),-29.2%
20,CCOCCCNC(=O)CN(Cc1ccc(Cl)cc1)S(C)(=O)=O,8.42%
21,COc1cc(-c2nc3n(n2)C(c2ccc(F)cc2)C2=C(CCCC2=O)N3)cc(OC)c1OC (stereo not shown),3.59%
22,Cc1cccc(NC(=O)CN(C)S(=O)(=O)c2cccc3cccnc23)c1,-3.6%

row,SMILES,"hERG current change (%, negative = inhibition) at 1uM"
1,COc1ccc(CN2CC(C(=O)N3CC(C)CC(C)C3)CC2=O)cc1 (stereo not shown),19.8%
2,S=c1nc(C23CC4CC(CC(C4)C2)C3)nc2sccn12,5.69%
3,CCOCCCn1c(SCC(=O)Nc2ccccc2OC)nc2ccccc2c1=O,-23.9%
4,Cc1c(C(=O)c2ccc(Cl)cc2Cl)cnc2cc3c(cc12)OCO3,14.6%
5,Cn1c(Cn2c(=O)sc3ccccc32)nnc1SCc1cccc(F)c1,8.87%
6,CCCn1c2c(c(O)c(C(=O)NC)c1=O)CCCC2,17.6%
7,CCn1c(Cc2ccccc2)nnc1SCC(=O)Nc1ccccc1N1CCOCC1,-1.98%
8,Cc1c(Br)cnn1C(C)C(=O)N1CCN(c2ccc(F)cc2)CC1 (stereo not shown),-9.4%
9,CCOC(=O)c1c(N)n(CCN2CCCCC2)c2nc3ccccc3nc12,1.93%
10,CN(C)C(=O)c1nc2ccc(Cl)cn2c1CNCc1cccc(OC(F)(F)F)c1,9.52%
11,CCC(C)(C)NC(=O)C(OC(=O)c1ccco1)c1ccc(OC)cc1 (stereo not shown),7.84%
12,CC(C)NC(=O)N1CCN(c2ccncc2S(=O)(=O)N2CCCCC2)CC1,15.3%
13,COc1ccc2c(c1)C(=O)[C@H](O)[C@@H](c1ccc(OC)c(Br)c1)O2,12.3%
14,Cc1ccccc1/C=N/Nc1nc2ccccc2[nH]1,10%
15,CN1CCN(CCCC(=O)c2ccc(C3CCCC3)cc2)CC1.Cl.O,-6.29%
16,CCN(CC)c1ccc(S(=O)(=O)N2CCCCC2)cc1NC(=O)C1CCC1,3.99%
17,Cc1cccc(NC(=O)Nc2cccc(Oc3c(F)c(F)c(F)c(F)c3F)c2)c1,11.1%
18,CCCC(=O)NCCc1ccc(S(N)(=O)=O)cc1,10.7%
19,O=C(Cc1ccc(Cl)cc1)Nc1cccc(-c2nnc(-c3ccco3)o2)c1,4.98%
20,c1cncc(CSc2nnc3ccc(-c4ccncc4)nn23)c1,-14.9%
21,COC(=O)CCC(=O)N1CCCC(CNS(=O)(=O)c2ccc(OC)cc2)C1 (stereo not shown),8.55%
22,Cc1c(C(=O)N2CCN(c3ccc(F)cc3)CC2)oc2c1C(=O)CCC2,-1.98%
